At least one peptide structure holds a part that was inferred or is arguable (an end, a ring closure or a residue). Where no end group is shown, it is not given here.
Columns and labels:
[1] = system: human umbilical vein endothelial cells; experiment: Transendothelial migration of neutrophils; format: cell-based; details: peptides 0.01 mM
Method: Transendothelial migration of neutrophils was studied based on a method described by Muller et al. (1992), J. Exp. Med. 176: 819-828. Briefly, human neutrophils suspended in ice-cold Hanks balanced salt solution (HBSS) containing Ca^++ and Mg^++ (Sigma) were fluoresceinated by adding 3.3 μl/ml 5-(and 6-)carboxyfluorescein diacetate, succinimidyl ester (CFSE, Molecular Probes Inc., Oreg.). After incubation for 30 mins. on ice, neutrophils were washed twice in cold HBSS with Ca^++ and Mg^++ and resuspended in cold Medium 199 (M199, Sigma) to a final concentration of 10^6 /ml. Human umbilical vein endothelial cells were subcultured at confluence into 96-well tissue culture plates (Becton Dickinson Labware, Lincoln Park, N.J.) that were coated with hydrated collagen gel (Vitrogen; Collagen Corporation, Palo Alto, Calif.) and fibronectin. Endothelial cells were stimulated with 10 ng/ml TNF-alpha for 4 hours and washed three times with warm M199. Neutrophils (10^6 /ml) were preincubated with 0.01 mM of peptides or with 1 μM of native FHA in M199 for 5 mins. on ice before they were added in 100 μl aliquots to the endothelial cells. For positive control, neutrophils were pre-incubated with 25 μg/ml anti-CD18 mAb IB4. For negative control, neutrophils were treated with 25 μg/ml mAb W6/32 against HLA class I antigen (Dako, Carpinteria, Calif.). The cells were incubated for 1 hour at 37° C., 5% CO2. To terminate transmigration, the supernatant fluid was aspirated and the wells were filled with warm 1 mM EGTA (Sigma) in HBSS without Ca and Mg. The plates were covered with plate sealers (Dynatech, Alexandria, Va.) and centrifuged in an inverted position at 250 g for 3 mins. at room temperature. To remove residual non-transmigrated neutrophils from the endothelial cells, monolayers were washed twice with 200 μl of warm Hanks solution without Ca and Mg. Fluorescence was quantitated using a fluorescence counter (Millipore Cytofluor™ 2300). The percentage of transmigrated neutrophils was determined by comparing the amount of fluorescence of test wells with that measured in collagen- and fibronectin-coated wells without endothelial cells. […] Percent inhibition of transendothelial migration of neutrophils was calculated by comparing the number of transmigrated cells in wells containing neutrophils treated with peptide to neutrophils treated with M199 alone and arbitrarily set at 100% transendothelial migration (TEM).
(§1) The procedures for determining the neutrophil adherence to cultured endothelial cells and the transendothelial migration of neutrophils were identical with those of Example 9. Control values were the same as those shown in Example 9.

[2] = system: human umbilical vein endothelial cells; experiment: Adherence of neutrophils to cultured activated endothelial cells; format: cell-based; details: for blocking of neutrophil adherence when RGD replaced: 0.5 mM, FIG. 25A; for inhibition of neutrophil adherence to stimulated HUVEC, comparison in words: FIG. 17
Method: Human umbilical vein endothelial cells (HUVEC, first passage, Clonetics, San Diego, Calif.) were subcultured at confluence into Terasaki tissue culture wells. After 24 hours, confluent monolayers were used for adherence assays. Monolayers were stimulated with 10 ng/ml TNF alpha (Boehringer Mannheim, Indianapolis, Ind.) at 37° C. for four hours. 30 μl of human neutrophils (10^6 /ml) were labeled with fluorescein by the method of Lo et al. (1991), J. Exp. Med. 173 1493-1500, and preincubated for 15 minutes at 37° C. with 20 μl of peptides (0.5 mM in HAP) or HAP (phosphate buffered saline containing 0.5 mg/ml human serum albumin, 3 mM glucose, and 0.3 U/ml aprotinin) as a control buffer. For some experiments, endothelial cells ere pretreated from 10 minutes with Factor X or antibodies against Factor X receptor (EPR-1; Altieri et al. (1990), J. Immunol. 145, 246-253) 12H1 and 9D4 (obtained from Dr. D. Altieri, Scripps Research Institute, LaJolla, Calif.) and then washed. Neutrophils were allowed to adhere to the monolayer for 15 mins. at 37° C. and unbound cells were removed by submersion of the plate in PBS buffer. The number of adherent neutrophils was counted in a 40× microscope field and expressed as a percentage of adherence in control wells with neutrophils treated with HAP buffer alone. The mAb IB4 against CD18 (50 μg/ml; Merck Inc., Rahway, N.J.) served as a positive control.
The ability of FHA peptides and anti-CD18 or anti-Factor X receptor antibodies to interact cooperatively to inhibit neutrophil adherence to endothelial cells was assessed by measuring neutrophil adherence to endothelial cells in the presence of antibody as well as antibody plus peptide. Anti-CD18 mAb IB4 was added to leukocytes at 10 μg/ml 10 min before the assay. Anti-Factor X receptor mAb 12H1 (10 μl of ascites) or 9D4 (10 μg/ml) were added to the endothelial cell monolayers 10 min before the assay. The peptides were added at 5 μg/ml. The results are shown in Table 8 where the numerical values are in % of control binding.
as §1

[3] = system: rabbits challenged intracisternally with pneumococcus strain R6; experiment: Rabbit model for meningitis, intravenous FHA or peptides; format: in vivo; details: for mean leukocyte concentration/μl CSF / mean leukocyte density/μl CSF: 7 hours after challenge; for Lactate / Protein: CSF at 6 hours; for mean leukocyte density/μl CSF: FHA 0.1 μM (25 μg/animal), peptides 1 ml of 1 uM i.v.
Method: The rabbit model was performed according to an established protocol. Specific pathogen free, New Zealand white rabbits (2 kg; Hare Marland, Nutley, N.J.) were anesthetized with valium (2.5 mg/kg, subcutaneously, Hoffman-LaRoche, Nutley, N.J.), ketamine (35 mg/kg, intramuscularly, Aveco, Fort Dodge, Iowa) and xylazine (5 mg/kg, intramuscularly, Miles Laboratories, Shawnee, Kans.) and a helmet of dental acrylic was affixed to the calvarium. Twenty four hours later, the rabbits were anesthetized with ethyl carbamate (1.75 g/kg; Aldrich Chemical Co., Milwaukee, Wis.) and pentobarbital (15 mg/kg; Abbott Laboratories, Abbott Park, Ill.) and placed in a stereotaxic frame. A spinal needle was introduced into the cisterna magna and 300 μl of CSF was withdrawn. The animals were challenged intracisternally with 10^8 heat killed, unencapsulated pneumococcus strain R6 introduced in 200 μl of saline (time 0). One hour later, animals were treated with peptides dissolved in 1 ml of saline by intravenous injection into the right marginal ear vein. The concentration of FHA was 0.1 μM and that of the FHA Ia, Factor X II, and scrambled FHA II peptides was 10 μM. For the acetyl-FHA II, acetyl/amide-FHA II, dimer of FHA II and trimer of FHA II peptides, the concentration was 10^-3 μM. The concentration of FHA II is given in the results section. Samples of CSF were withdrawn at hourly intervals after pneumococcal inoculation and leukocyte density was measured using a cell counter (Coulter Electronics Inc., Hialeah, Fla.). CSF samples were centrifuged at 10,000×g for 5 minutes and the supernatant was stored at -70° C. until assayed for protein concentration using the bicinchoninic acid method (BCA Kit, Pierce Chemical Co., Rockford Ill.) and for lactate concentration (Lactate Detection Kit, Sigma, St. Louis, Mo.). Statistically significant differences between treatments were determined by a one way analysis of variance test.
The anti-inflammatory effects of the administered peptides were assessed in the rabbit model for meningitis by the procedures described in Example 10. The animals received 1 ml of 1 uM peptide intravenously. In a slight departure from the protocol described in Example 10, samples of blood were drawn from the left marginal ear vein 30 minutes after the administration of the peptides to determine peripheral leukocyte concentrations.

THP-1 cells = experiment: Generation of Factor Xa by monocytes; format: cell-based; details: peptides 0.5 mM; for Factor Xa: from standard curve; for reduction of Factor Xa production: versus scrambled FHA II peptide
Method: Factor Xa generation was determined by a modification of the method of Miletich et al. (1978), J. Biol. Chem. 253: 6908-6916. THP-1 cells (ATCC; 3×10^7 /ml) resuspended in RPMI 1640 (Bio Whittaker, Walkersville, Md.) were incubated with 100 μM ADP (Sigma), 2.5 mM CaCl2, 1 or 5 μg/ml Factor X (Hematologic Technologies Inc.) and 0.5 mM peptides at room temperature. After 20 minutes, 100 μl of the reaction mixture was transferred to 37° C. and supplemented with 100 μl of bovine factor VII- and Factor X-deficient plasma (Sigma). Coagulation was initiated by adding 100 μl of 25 mM CaCl2 and the clotting time was determined. Factor Xa procoagulant activity (ng/ml) was calculated by means of a standard curve constructed by serial concentrations of Factor Xa (Hematologic Technologies Inc.) from 50 to 250 ng/ml.

[4] = 6 hours after intracisternal inoculation of pneumococci
[5] = 7 hours after intracisternal inoculation of pneumococci
[6] = FHA 0.1 μM (25 μg per 2 kg), peptides 10 μM, i.v.

Substance: AADPHQGVLAQGDIIMDAKG [FHA Cc]
- % Inhibition of TEM ([1]; FHA 1 μM, mAb IB4 25 μg/ml): 11 ± 11%
- blocking of neutrophil adherence when RGD replaced [2]: not statistically different from buffer alone
- Total protein in CSF [3, 4]: 1.36 ± 0.16 mg/mL
- Total protein in CSF [3, 5]: 1.90 ± 0.22 mg/mL

Substance: Ac-ETKEVDG [Acetyl-FHA II]
- % Inhibition of TEM ([1]; native FHA 1 μM, mAbs 25 μg/ml): 7 ± 1%
- Clotting time (THP-1 cells): 29.8 ± 3.3 s
- Factor Xa (THP-1 cells): 85.9 ng/mL
- mean leukocyte concentration/μl CSF ([3]; 10^-3 μM i.v.): 2145±922 /μl CSF
- Lactate ([3]; 10^-3 μM): 27.2 ± 4.4 mg/100 ml
- Protein ([3]; 10^-3 μM): 1.42 ± 0.47 mg/ml CSF

Substance: DEETVK [scrambled FHA II, DEETVK, reference compound]
- % Inhibition of TEM ([1]; native FHA 1 μM, mAbs 25 μg/ml): 4 ± 5%
- Clotting time (THP-1 cells): 23.1 ± 1.0 s
- Factor Xa (THP-1 cells): 165.0 ng/mL
- Factor Xa (THP-1 cells; control FHA II peptide): 165 ng/mL
- inhibition of neutrophil adherence to stimulated HUVEC, comparison in words ([2]; peptides 0.5 mM): did not interfere with neutrophil binding
- mean leukocyte concentration/μl CSF [3, 6]: 6431±1380 /μl CSF
- Lactate ([3]; FHA 0.1 μM, peptides 10 μM): 40.7 ± 5.8 mg/100 ml
- Protein ([3]; FHA 0.1 μM, peptides 10 μM): 1.9 ± 0.3 mg/ml CSF

Substance: GLIQGRSVKVD [FHA Ib]
- % Inhibition of TEM ([1]; native FHA 1 μM, mAbs 25 μg/ml): 7 ± 10%
- Clotting time (THP-1 cells): 38.0 ± 7.6 s
- Factor Xa (THP-1 cells): 31.3 ng/mL
- reduction of Factor Xa production (THP-1 cells): 81%

Substance: GLYQAKRFKVG [Factor X I, reference compound]
- % Inhibition of TEM ([1]; native FHA 1 μM, mAbs 25 μg/ml): 10 ± 6%

Substance: GRTRG [FHA III, GRTRG]
- % Inhibition of TEM ([1]; native FHA 1 μM, mAbs 25 μg/ml): 5 ± 6%
- Clotting time (THP-1 cells): 36.2 ± 2.7 s
- Factor Xa (THP-1 cells): 43.4 ng/mL
- reduction of Factor Xa production (THP-1 cells): 74%
- inhibition of neutrophil adherence to stimulated HUVEC, comparison in words ([2]; peptides 0.5 mM): less effective than the corresponding Factor X derived peptide

Substance: GTLLLRNDALTENGTVTISA [FHA Cd]
- % Inhibition of TEM ([1]; FHA 1 μM, mAb IB4 25 μg/ml): 6 ± 6%
- inhibition of leukocyte adherence to endothelial cells ([2]; peptides 0.5 mM, mAb IB4 50 μg/ml): < 15%
- Total protein in CSF [3, 4]: 1.71 ± 0.19 mg/mL
- mean leukocyte density/μl CSF [3]: no effect on the leukocyte recruitment into the CSF
- Total protein in CSF [3, 5]: 2.03 ± 0.57 mg/mL

Substance: GYDTKQEDG [Factor X II, reference compound]
- % Inhibition of TEM ([1]; native FHA 1 μM, mAbs 25 μg/ml): 14 ± 9%
- mean leukocyte concentration/μl CSF [3, 6]: 1622±521 /μl CSF
- Lactate ([3]; FHA 0.1 μM, peptides 10 μM): 37.6 ± 6.9 mg/100 ml
- Protein ([3]; FHA 0.1 μM, peptides 10 μM): 1.6 ± 0.7 mg/ml CSF

Substance: IDRSMKTRG [Factor X III, reference compound]
- % Inhibition of TEM ([1]; native FHA 1 μM, mAbs 25 μg/ml): 5 ± 7%

Substance: LGYQAK [FHA Ia, LGYQAK]
- % Inhibition of TEM ([1]; native FHA 1 μM, mAbs 25 μg/ml): 23 ± 5%
- Clotting time (THP-1 cells): 34.1 ± 1.1 s
- Factor Xa (THP-1 cells): 57.4 ng/mL
- neutrophil adherence, % of control binding, antibody none ([2]; peptide 5 μg/ml): 63 ± 12 % of control binding
- neutrophil adherence, % of control binding, antibody 9D4 ([2]; peptide 5 μg/ml plus 9D4 10 μg/ml): 63 ± 17 % of control binding
- neutrophil adherence, % of control binding, antibody 12H1 ([2]; peptide 5 μg/ml plus 12H1 10 μl of ascites): 64 ± 12 % of control binding
- neutrophil adherence, % of control binding, antibody IB4 ([2]; peptide 5 μg/ml plus IB4 10 μg/ml): 20 ± 7 % of control binding
- additive reduction of neutrophil adherence ([2]; peptide together with anti-CD18 mAb IB4 (50 μg/ml)): > 80±10%
- inhibition of neutrophil adherence to stimulated HUVEC, comparison in words ([2]; peptides 0.5 mM): significantly more active than the Factor X peptide I
- mean leukocyte concentration/μl CSF [3, 6]: 1640±1210 /μl CSF
- reduction of CSF leukocytosis ([3]; 7 hours, FHA 0.1 μM, peptides 10 μM): > 60%
- Lactate ([3]; FHA 0.1 μM, peptides 10 μM): 36.0 ± 6.7 mg/100 ml
- Protein ([3]; FHA 0.1 μM, peptides 10 μM): 1.8 ± 0.4 mg/ml CSF

Substance: RADPHQGVLAQGDIIMDAKG [FHA Cb]
- % Inhibition of TEM ([1]; FHA 1 μM, mAb IB4 25 μg/ml): 8 ± 9%
- blocking of neutrophil adherence when RGD replaced [2]: activity was decreased by half
- Total protein in CSF [3, 4]: 1.91 ± 0.24 mg/mL
- mean leukocyte density/μl CSF [3]: 2788±1022 cells/μl CSF
- Total protein in CSF [3, 5]: 2.28 ± 0.28 mg/mL
- leukocyte migration into the CSF at reduced dose ([3]; dose of 0.1 μM, FIG. 29): ineffective at this dose

From patent US5932217A, “Peptides which inhibit adhesion between leukocytes and endothelial cells” (priority 1994, dated 1999)
